Reference: PubChem BioAssay AID686971 (National Center for Advancing Translational Sciences (NCATS), 2013)
Screen size: about 360,000 compounds; about 7,500 (2.1%) were called active. Inconclusive results, whose numbers are uncertain, are shown with a selection of clear calls. Calls come from the whole dose curve; as a rule, active = well fitted cell-killing curve with a large enough effect; inconclusive = small, poorly fitted or top-dose-only effect, or effect the other way, or another doubt; inactive = no such curve, though single readings can be large or run the other way. Potencies of inconclusive entries are left out as doubtful fits.

assay: qHTS for induction of synthetic lethality in tumor cells producing 2HG: qHTS for the HT-1080-IDH1KD cell line; conditions: HT-1080 IDH1 knockdown viability, ATP luminescence, 48 h; activity, negative = toxicity: at 46.1 µM (top of the series) unless noted;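 for activity, negative = toxicity: 0% = DMSO wells and -100% = cell-free medium wells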
In short: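 HT-1080-IDH1KD cells (IDH1 knocked down), 750/well in RPMI with 5% FBS, treated with compound 48 h at 37 degrees C. Viability by CellTiter-Glo luminescence, normalised to DMSO and no-cell wells; concentration-response curves classed.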
Potency is the fitted concentration of half-maximal effect; tags give direction and shape of the fitted curve.

Row | Compound | Potency | activity, negative = toxicity
1 | COc1ccc(-c2ccc(C(=O)Nc3ccc(OC)nc3)c3occc23)c(C)c1 | inconclusive [cytotoxic, single point] | 
2 | O=C(C1CCN(CCCc2ccccc2)CC1)N(CCc1ccccc1)Cc1ccccc1 | inconclusive [cytotoxic, partial curve] | 
3 | Cc1ccccc1NS(=O)(=O)c1ccc(OCC(=O)NCc2ccccn2)cc1 |  | inactive: -6.82%
4 | O=C(OCn1ncc(Br)c(Br)c1=O)c1ccccc1Cl | active: 6.51 µM | 
5 | COc1ccc(/C=N/n2c(-c3ccccc3)n[nH]c2=S)cc1 |  | inactive: 4.03%
6 | CC(=O)O[C@H]1C(=O)[C@@]2(C)[C@H]([C@H](OC(=O)c3ccccc3)[C@]3(O)C[C@H](OC(=O)[C@H](O)C(NC(=O)c4ccccc4)c4ccccc4)C(C)=C1C3(C)C)[C@]1(OC(C)=O)CO[C@@H]1C[C@@H]2O (stereo not given in full) | active: 0.0092 µM | 
7 | O=C(CN1CCCN(S(=O)(=O)c2ccc(Br)s2)CC1)Nc1ccc(Cl)cc1 | active: 17.8 µM | 
8 | O=C(O)CSc1cc(NS(=O)(=O)c2ccc(Cl)cc2)c2ccccc2c1O | active: 25.9 µM | 
9 | O=C1C2=C(NC(=S)NC2c2ccc(Cl)cc2)NC(c2ccc(Cl)cc2)N1c1ccc(Cl)cc1 (stereo not given) | inconclusive [cytotoxic, single point] | 
10 | CCCCCCCNC(=O)C1(CC2CC(c3ccccc3)=NO2)CCNCC1 (stereo not given) |  | inactive: -8.67%
11 | Cc1ccccc1-n1c(SCc2cccc(F)c2)nc2[nH]ncc2c1=O | inconclusive [cytotoxic, single point] | 
12 | Cc1nn(-c2cccc(Cl)c2)c2nc(C(F)(F)F)[nH]c(=O)c12 | inconclusive [cytotoxic, single point] | 
13 | Cc1ccc(C(NC(=O)C2CCN(CCOc3ccc(Cl)cc3Cl)CC2)c2ccccn2)cc1 (stereo not given) | inconclusive [cytotoxic, single point] | 
14 | Cc1ncc([N+](=O)[O-])n1CC(=O)Nc1ccc(OC(F)(F)Cl)cc1 |  | inactive: 5.03%
15 | O=C(O)c1ccc(N/N=C/C2=Cc3ccccc3OC2)cc1 | inconclusive [cytotoxic, partial curve] | 
16 | CCOc1cc(S(=O)(=O)n2c(C)nc3ccccc32)ccc1F | inconclusive [cytotoxic, single point] | 
17 | C[C@H](CCC(=O)O)[C@H]1CC[C@H]2[C@@H]3CC[C@@H]4C[C@H](O)CC[C@]4(C)[C@H]3C[C@H](O)[C@]12C | inconclusive [cytotoxic, single point] | 
18 | O=C(Nc1cccc(OC(F)(F)F)c1)C1Cc2c(-c3ccc(Cl)cc3)ccnc2O1 (stereo not given) | inconclusive [cytotoxic, single point] | 
19 | C=CCc1ccc(OCCCCNC2CCCC2)c(OC)c1 |  | inactive: -24.9%
20 | Cc1ccnc(NC(=O)C23CC4CC(CC(C4)C2)C3)c1 | inconclusive [cytotoxic, single point] | 
21 | Cc1cccc(OCC(=O)Nc2ccc3c(c2)nc(CCN2CCN(c4ccccn4)CC2)n3C)c1 | inconclusive [cytotoxic, partial curve] | 
22 | COc1cc2c(cc1OC)C(C(=O)Nc1ccc3c(c1)OCCO3)C(c1cccnc1)N(C)C2=O (stereo not given) |  | inactive: -3.89%
23 | COc1ccccc1N1CCN(C(=O)c2cc(-c3ccccc3O)on2)CC1 |  | inactive: 4.88%
24 | CCOC(=O)c1c(NC(=S)N2CCN(C)CC2)sc(C)c1-c1ccccc1 | inconclusive [cytotoxic, single point] | 

Row | Compound | Potency | activity, negative = toxicity
25 | C=C1C(=O)[C@]23C[C@H]1CCC2[C@@]1(C)C(C[C@@H]3O)[C@](C)(C(=O)OC)CC[C@@H]1O (stereo not given in full) | active: 2.31 µM | 
26 | Cc1cccc(N2CCc3c2nc2ccc(Br)cc2c3N)c1 | inconclusive [cytotoxic, single point] | 
27 | Cc1ccc(-c2c(C)sc(NC(=O)C3C4CCC(O4)C3C(=O)O)c2C(=O)OC(C)C)cc1 (stereo not given) | inconclusive [cytotoxic, single point] | 
28 | CS/C(Nc1cc(Cl)ccc1Cl)=C(/C#N)C(=O)c1ccco1 |  | inconclusive: -23.7% [cytotoxic]
29 | O=C(Nc1ccc(C(=O)N2CCCC2)cc1)C1CCC1 |  | inactive: 4.1%
30 | CC(C)C1C(=O)N(Cc2cn(CCC3OCCO3)nn2)CCS(=O)(=O)N1Cc1ccc(-c2ccccc2C(F)(F)F)cc1 (stereo not given) | inconclusive [cytotoxic, single point] | 
31 | c1ccc2c(N3CCOCC3)nc(-c3ccncc3)nc2c1 |  | inactive: -7.35% [at 9.24 µM]
32 | CCCCOc1ccc(CSC(=N)N)cc1[N+](=O)[O-] | inconclusive [cytotoxic, single point] | 
33 | CCCc1ccc(C(C)NC(=S)NCc2ccc(F)cc2)cc1 (stereo not given) | inconclusive [cytotoxic, single point] | 
34 | COc1cc([N+](=O)[O-])cc(/C=N/NC(=O)C(O)(c2ccccc2)c2ccccc2)c1O | inconclusive [cytotoxic, single point] | 
35 | O=C(Nc1ccc(F)cc1)C1(S(=O)(=O)c2ccc(Cl)cc2)CC1 | inconclusive [cytotoxic, single point] | 
36 | Cc1ccc(NNC(=O)CCc2ccccc2)c(C)c1 | active: 25.9 µM | 
37 | COc1ccc(OC)c(S(=O)(=O)N2CCCC(C(=O)NCc3cccnc3)C2)c1 (stereo not given) |  | inactive: 5.98%
38 | CC(C)(C)C(=O)C1=C(O)C(=O)N(c2ccccc2)C1c1ccccc1 (stereo not given) |  | inactive: -4.48%
39 | C=C1C(=O)C23C(O)C1CCC2C12CCCC(C)(COC(C)=O)C1C(O)C3(O)OC2 (stereo not given) | active: 1.84 µM | 
40 | COc1ccccc1N(CC(=O)N/N=C(\C)c1ccccc1O)S(=O)(=O)c1ccc(C)cc1 | inconclusive [cytotoxic, partial curve] | 
41 | CN(C)/C(=N\S(=O)(=O)c1ccccc1)c1ccccc1 |  | inactive: 13.6%
42 | COc1ccc(N/C=C/c2nc(SC)nnc2C)cc1 | inconclusive [cytotoxic, single point] | 
43 | CN(CCOc1ccc(Cl)cc1)CC(=O)Nc1ccc(OC(F)(F)F)cc1 | inconclusive [cytotoxic, single point] | 
44 | O=C(NC(=S)Nc1ccc(CN2CCOCC2)cc1)c1ccc(-c2cccc(Cl)c2)o1 | inconclusive [cytotoxic, single point] | 
45 | COc1ccc(-c2sc3ccccc3c2C#CCCO)cc1 |  | inactive: -3.97%
46 | CCSc1nnc(NC(=O)NC(CC)(C(F)(F)F)C(F)(F)F)s1 | inconclusive [cytotoxic, single point] | 
47 | CC(C)OC(=O)/C(C#N)=C/c1cn(C)c2ccccc12 |  | inactive: -3.49%
48 | O=C(Nc1ccc(F)cc1)C(c1ccncc1)N1CCN(c2cccc(C(F)(F)F)n2)CC1 (stereo not given) | inconclusive [cytotoxic, single point] | 

Row | Compound | Potency | activity, negative = toxicity
49 | COc1ccc2[nH]c3c(NCCC4=CCCCC4)ncnc3c2c1 | active: 16.4 µM | 
50 | C/C(=N\Nc1nc2ccccc2[nH]1)c1cc2ccccc2o1 | inconclusive [cytotoxic, single point] | 
51 | C[C@@H](c1ccccc1)N1C[C@@H](COCc2ccccc2)Oc2cc(N3CCC[C@H]3C(N)=O)ccc2S1(=O)=O |  | inactive: -24.2%
52 | O=C(COC(=O)c1ccc[nH]c1=O)NCCc1ccc(F)cc1 |  | inactive: 9.94%
53 | CCCCC(=O)NC(=S)NNC(=O)c1ccc(OC)cc1 | inconclusive [cytotoxic, partial curve] | 
54 | N#CC1=C(N)C(C#N)(C#N)[C@H](c2cccnc2)[C@H]2CN(C(=O)OCc3ccccc3)CC=C12 | inconclusive [cytotoxic, single point] | 
55 | O=c1oc2ccccc2c(O)c1/C=C1\C=Nc2ccccc21 | active: 25.9 µM | 
56 | N#Cc1c(-c2ccc(Cl)cc2)n(O)c2ccccc12 | active: 14.6 µM | 
57 | CN(Cc1ccccc1)S(=O)(=O)c1ccc(NC(=S)NC(=O)C(C)(C)C)cc1 |  | inactive: 0.559%
58 | CCC1(c2ccccc2)NC(=O)N(CC(=O)NCC2COc3ccccc3O2)C1=O (stereo not given) |  | inactive: -0.142%
59 | O=C1C2C3C=CC(O3)C2C(=O)N1Cc1ccncc1 (stereo not given) |  | inactive: 14.2%
60 | C=C1CCN([C@@H](CC(C)C)C(=O)NN2CCOCC2)S(=O)(=O)c2ccccc21 |  | inactive: 8.72%
61 | CC(=O)NNC(=O)c1[nH]c2ccc(Br)cc2c1-c1ccccc1 | inconclusive [cytotoxic, partial curve] | 
62 | COc1ccc2cc(CN(CC3CCCO3)C(=S)Nc3ccccc3)c(=O)[nH]c2c1 (stereo not given) | active: 14.6 µM | 
63 | Cc1ccc(S(=O)(=O)CCC(=O)c2cccc([N+](=O)[O-])c2)cc1 | active: 6.51 µM | 
64 | COc1ccccc1CC(Cc1nc2ccccc2[nH]1)c1nc2ccccc2[nH]1 (stereo not given) | inconclusive [cytotoxic, single point] | 
65 | CCN1C[C@@H]2[C@@H]3C(=O)N(C)C(=O)[C@@H]3[C@](C)(C1=O)N2C(=O)c1ccc(C)cc1 |  | inactive: 14.3%
66 | CCOc1cc2c3c(c1)C1(C(=O)N3C(C)(C)C=C2C)C(C#N)=C(N)Oc2cc(O)ccc21 (stereo not given) | inconclusive [cytotoxic, single point] | 
67 | CN(CCCNC(=O)c1nn(C)c2c1CS(=O)(=O)c1ccccc1-2)Cc1ccccc1 |  | inactive: -5.28%
68 | Cc1onc(C(=O)N2CCN(C(c3ccccc3)c3ccccc3)CC2)c1[N+](=O)[O-] |  | inactive: -8.73%
69 | CC(C)(C)OC(=O)NCCCCCNC(=O)c1nc[nH]c1C(=O)NCc1ccc(CNC(=O)OC(C)(C)C)cc1 | inconclusive [cytotoxic, partial curve] | 
70 | COc1ccc(-c2nsc(SCC(=O)Nc3ccc4c(c3)OCO4)n2)cc1 | inconclusive [cytotoxic, single point] | 
